Measured values taken from a collection of fitness landscapes (doi:10.1126/science.1257360).
The list shows a part of the results.

B1: PhoQ; a variant is named by its letters at X, in order, P23837 (parent)
chain: MKKLLRLFFPLSLRVRFLLATAAVVLVLSLAYGMVALIGYSVSFDKTTFRLLRGESNLFYTLAKWENNKLHVELPENIDKQSPTMTLIYDENGQLLWAQRDVPWLMKMIQPDWLKSNGFHEIEADVNDTSLLLSGDHSIQQQLQEVREDDDDAEMTHSVAVNVYPATSRMPKLTIVVVDTIPVELKSSYMVWSWFIYVLSANLLLVIPLLWVAAWWSLRPIEALAKEVRELEEHNRELLNPATTRELTSLVRNLNRLLKSERERYDKYRTTLTDLTHSLKTPLXXLQXXLRSLRSEKMSVSDAEPVMLEQISRISQQIGYYLHRASMRGGTLLSRELHPVAPLLDNLTSALNKVYQRKGVNISLDISPEISFVGEQNDFVEVMGNVLDNACKYCLEFVEISARQTDEHLYIVVEDDGPGIPLSKREVIFDRGQRVDTLRPGQGVGLAVAREITEQYEGKIVAGESMLGGARMEVIFGRQHSAPKDE

Variants of: B1
Test: enrichment ratio after two sorts for PhoP signalling (ratio (wild type AVST 3.29)); higher = more functional
Conditions: with PhoP (E. coli)

Row | Variant | enrichment ratio
1 | EAND | ≤ 0.25
2 | AFHA | ≤ 0.25
3 | AVRL | ≤ 0.25
4 | FRRQ | ≤ 0.25
5 | YLGD | ≤ 0.25
6 | NFEF | ≤ 0.25
7 | WDPG | ≤ 0.25
8 | KHRS | ≤ 0.25
9 | PENT | ≤ 0.25
10 | WVFG | ≤ 0.25
11 | LVSN | 0.301
12 | LQTT | 0.639
13 | HSEV | ≤ 0.25
14 | NVCW | ≤ 0.25
15 | VFNH | ≤ 0.25
16 | MVAL | 11.3
17 | NNRM | ≤ 0.25
18 | ETWD | ≤ 0.25
19 | GYYY | ≤ 0.25
20 | SGNL | 0.304
21 | KFII | ≤ 0.25
22 | HKNH | ≤ 0.25
23 | SQLF | 12.6
24 | HHYV | ≤ 0.25

Row | Variant | enrichment ratio
25 | KQAI | ≤ 0.25
26 | DYYA | ≤ 0.25
27 | HISV | ≤ 0.25
28 | TDNT | 9.22
29 | EIIT | ≤ 0.25
30 | FSET | ≤ 0.25
31 | WHST | ≤ 0.25
32 | YIFE | ≤ 0.25
33 | ATFY | ≤ 0.25
34 | CMPI | ≤ 0.25
35 | IWIA | ≤ 0.25
36 | LSQY | ≤ 0.25
37 | MTKG | ≤ 0.25
38 | ILPG | ≤ 0.25
39 | FMRV | ≤ 0.25
40 | DGLY | ≤ 0.25
41 | MKNP | ≤ 0.25
42 | EDYK | ≤ 0.25
43 | VMVA | ≤ 0.25
44 | PRMC | ≤ 0.25
45 | QRAH | ≤ 0.25
46 | MMAV | 5.57
47 | EFGT | ≤ 0.25
48 | HDNS | ≤ 0.25

Row | Variant | enrichment ratio
49 | KQDY | ≤ 0.25
50 | LNVF | ≤ 0.25
51 | GDCR | ≤ 0.25
52 | NPEG | ≤ 0.25
53 | IYGP | ≤ 0.25
54 | PVNK | ≤ 0.25
55 | THNS | 11
56 | AYYH | ≤ 0.25
57 | HVRA | ≤ 0.25
58 | ANQY | 3.3
59 | PKEE | ≤ 0.25
60 | WLKM | ≤ 0.25
61 | MKYN | ≤ 0.25
62 | FPAQ | ≤ 0.25
63 | QCDF | ≤ 0.25
64 | KRWM | ≤ 0.25
65 | MNCH | ≤ 0.25
66 | YHAF | ≤ 0.25
67 | HHDS | ≤ 0.25
68 | WRPF | ≤ 0.25
69 | EARY | ≤ 0.25
70 | ECFH | ≤ 0.25
71 | PCHR | ≤ 0.25
72 | CFPP | ≤ 0.25

Row | Variant | enrichment ratio
73 | CLFR | ≤ 0.25
74 | WDTK | ≤ 0.25
75 | TTIK | ≤ 0.25
76 | VSYQ | ≤ 0.25
77 | MEFA | ≤ 0.25
78 | QFVG | ≤ 0.25
79 | NDAG | ≤ 0.25
80 | HMDR | ≤ 0.25
81 | HFMP | ≤ 0.25
82 | SLGM | 6.71
83 | EMTK | ≤ 0.25
84 | TFVH | ≤ 0.25
85 | WITK | ≤ 0.25
86 | NRMS | ≤ 0.25
87 | QRHS | ≤ 0.25
88 | FWAA | ≤ 0.25
89 | TQWD | 7.23
90 | HKDQ | ≤ 0.25
91 | TDVV | 3.63
92 | NEYA | ≤ 0.25
93 | AFMC | ≤ 0.25
94 | LHAR | ≤ 0.25
95 | HLLF | ≤ 0.25
96 | APKD | ≤ 0.25

Row | Variant | enrichment ratio
97 | YFYR | ≤ 0.25
98 | KSFS | ≤ 0.25
99 | TVSG | 20.3
100 | REVN | ≤ 0.25
101 | LVGQ | ≤ 0.25
102 | NWLA | ≤ 0.25
103 | RIPA | ≤ 0.25
104 | LKTR | ≤ 0.25
105 | TFPI | ≤ 0.25
106 | DRYG | ≤ 0.25
107 | EETH | ≤ 0.25
108 | PMGM | ≤ 0.25
109 | HCRT | ≤ 0.25
110 | WAWR | ≤ 0.25
111 | GCRY | ≤ 0.25
112 | NFEM | ≤ 0.25
113 | IFKC | ≤ 0.25
114 | IMQM | ≤ 0.25
115 | DLWI | ≤ 0.25
116 | ASFK | ≤ 0.25
117 | YFWT | ≤ 0.25
118 | YWTH | ≤ 0.25
119 | GYRY | ≤ 0.25
120 | SHQR | ≤ 0.25

Row | Variant | enrichment ratio
121 | PDRT | ≤ 0.25
122 | HPHD | ≤ 0.25
123 | LEGR | ≤ 0.25
124 | GLSP | ≤ 0.25
125 | TEHA | ≤ 0.25
126 | NRWA | 0.871
127 | YAAI | ≤ 0.25
128 | HIYV | ≤ 0.25
129 | FSFR | ≤ 0.25
130 | HYIM | ≤ 0.25
131 | MVGF | 5.73
132 | QSCK | ≤ 0.25
133 | EGNH | ≤ 0.25
134 | QGNH | ≤ 0.25
135 | PRHD | ≤ 0.25
136 | IHWL | ≤ 0.25
137 | RNME | ≤ 0.25
138 | VAVK | ≤ 0.25
139 | NGPC | 0.99
140 | SDVV | 6.28
141 | DIAY | ≤ 0.25
142 | IGTT | ≤ 0.25
143 | LNFH | ≤ 0.25
144 | VNPP | ≤ 0.25

Row | Variant | enrichment ratio
145 | HKQF | ≤ 0.25
146 | WRWQ | ≤ 0.25
147 | LNTR | ≤ 0.25
148 | TDSV | 10
149 | QITW | ≤ 0.25
150 | DKTN | ≤ 0.25
151 | TINT | 4.95
152 | HSKN | ≤ 0.25
153 | YDMD | ≤ 0.25
154 | TYVH | ≤ 0.25
155 | EHCF | ≤ 0.25
156 | IKDN | ≤ 0.25
157 | CHVF | ≤ 0.25
158 | TISA | 10.6
159 | IMQC | ≤ 0.25
160 | PNCK | ≤ 0.25
161 | REKL | ≤ 0.25
162 | VKSD | ≤ 0.25
163 | RAVF | ≤ 0.25
164 | FLMR | ≤ 0.25
165 | SQCQ | 3.73
166 | LNCM | ≤ 0.25
167 | MEEN | ≤ 0.25
168 | RNQN | ≤ 0.25

Row | Variant | enrichment ratio
169 | HGRC | ≤ 0.25
170 | HCLP | ≤ 0.25
171 | HFIQ | ≤ 0.25
172 | CLSP | ≤ 0.25
173 | LGRE | ≤ 0.25
174 | TTDI | ≤ 0.25
175 | SNIQ | ≤ 0.25
176 | KSYP | ≤ 0.25
177 | ALMG | 6.08
178 | RDKF | ≤ 0.25
179 | ERVN | ≤ 0.25
180 | QDFD | ≤ 0.25
181 | PTIM | ≤ 0.25
182 | SRLA | ≤ 0.25
183 | LWVE | ≤ 0.25
184 | EHAD | ≤ 0.25
185 | VKWH | ≤ 0.25
186 | RSPT | ≤ 0.25
187 | NEGV | ≤ 0.25
188 | YMHD | ≤ 0.25
189 | WSCW | ≤ 0.25
190 | ASKV | ≤ 0.25
191 | SITD | ≤ 0.25
192 | HQAT | ≤ 0.25

Row | Variant | enrichment ratio
193 | TAAL | 11.4
194 | WDQL | ≤ 0.25
195 | NMTF | ≤ 0.25
196 | MVGA | ≤ 0.25
197 | KDAM | ≤ 0.25
198 | RSMR | ≤ 0.25
199 | PAAS | ≤ 0.25
200 | VYQT | ≤ 0.25
201 | LGYD | ≤ 0.25
202 | QPWG | ≤ 0.25
203 | QQNL | 14.9
204 | IQKV | ≤ 0.25
205 | MNDM | ≤ 0.25
206 | PKSR | ≤ 0.25
207 | YIMQ | ≤ 0.25
208 | MQMT | ≤ 0.25
209 | FPWY | ≤ 0.25
210 | WRNY | ≤ 0.25
211 | WTYF | ≤ 0.25
212 | NKIW | ≤ 0.25
213 | LVQL | ≤ 0.25
214 | EMFD | ≤ 0.25
215 | VWEG | ≤ 0.25
216 | MWHT | ≤ 0.25

Row | Variant | enrichment ratio
217 | PTTQ | ≤ 0.25
218 | SMEC | ≤ 0.25
219 | FAAQ | ≤ 0.25
220 | QECD | ≤ 0.25
221 | SGIF | 2.26
222 | HSYN | ≤ 0.25
223 | QQEG | ≤ 0.25
224 | IFMV | ≤ 0.25
225 | IVKP | ≤ 0.25
226 | LAGE | ≤ 0.25
227 | RRMP | ≤ 0.25
228 | NPRQ | ≤ 0.25
229 | LWGE | ≤ 0.25
230 | QFFQ | ≤ 0.25
231 | VFEW | ≤ 0.25
232 | ALWC | ≤ 0.25
233 | DHMH | ≤ 0.25
234 | MRTF | ≤ 0.25
235 | VCDI | ≤ 0.25
236 | PIWH | ≤ 0.25
237 | TEQC | 9.21
238 | FWVL | ≤ 0.25
239 | HNTI | ≤ 0.25
240 | DWCS | ≤ 0.25

Row | Variant | enrichment ratio
241 | KCHV | ≤ 0.25
242 | GGHP | ≤ 0.25
243 | KIDL | ≤ 0.25
244 | HQAI | ≤ 0.25
245 | LRYC | ≤ 0.25
246 | SPCY | ≤ 0.25
247 | VNVT | ≤ 0.25
248 | YYQA | ≤ 0.25
249 | SKMD | 0.57
250 | GMLQ | ≤ 0.25
251 | LKVP | ≤ 0.25
252 | SDDT | ≤ 0.25
253 | TISQ | 10.4
254 | LPLT | ≤ 0.25
255 | LAGY | ≤ 0.25
256 | YCYK | ≤ 0.25
257 | SKTT | 3.09
258 | TCGA | 6.88
259 | INLV | 4.76
260 | FNNC | ≤ 0.25
261 | KYGW | ≤ 0.25
262 | LRRE | ≤ 0.25
263 | NIFV | ≤ 0.25
264 | HHKW | ≤ 0.25

Row | Variant | enrichment ratio
265 | KTIN | ≤ 0.25
266 | ESWE | ≤ 0.25
267 | KTQM | ≤ 0.25
268 | HTEF | ≤ 0.25
269 | TQNA | ≤ 0.25
270 | RPKY | ≤ 0.25
271 | VQDY | ≤ 0.25
272 | QLRT | ≤ 0.25
273 | KAGH | ≤ 0.25
274 | FDYA | ≤ 0.25
275 | LCDD | ≤ 0.25
276 | WASS | ≤ 0.25
277 | LDFG | ≤ 0.25
278 | QASD | ≤ 0.25
279 | KQHV | ≤ 0.25
280 | EMFN | ≤ 0.25
281 | FPDV | ≤ 0.25
282 | ITFT | ≤ 0.25
283 | PHCL | ≤ 0.25
284 | WERT | ≤ 0.25
285 | LDDN | ≤ 0.25
286 | YFCQ | ≤ 0.25
287 | DRPH | ≤ 0.25
288 | YYQC | ≤ 0.25

Row | Variant | enrichment ratio
289 | SPSY | ≤ 0.25
290 | HVWR | ≤ 0.25
291 | NSIY | ≤ 0.25
292 | PDAA | ≤ 0.25
293 | GWQC | ≤ 0.25
294 | LDAD | ≤ 0.25
295 | SCWV | ≤ 0.25
296 | NMRY | ≤ 0.25
297 | YKIK | ≤ 0.25
298 | TKQT | 11.7
299 | NREN | ≤ 0.25
300 | FHLD | ≤ 0.25
301 | WARY | ≤ 0.25
302 | SRMR | ≤ 0.25
303 | PACV | ≤ 0.25
304 | MGKA | ≤ 0.25
305 | EQKG | ≤ 0.25
306 | ARRR | ≤ 0.25
